Source: PubChem BioAssay AID624417 (National Center for Advancing Translational Sciences (NCATS), 2012)
The whole screen tested about 410,000 compounds, of which about 6,400 (1.6%) were called active. The shares of active, inactive and inconclusive entries below differ from those in the screen. Calls follow the shape of the dose curve; as a rule, active = well fitted inhibition curve with a large enough effect; inconclusive = small, poorly fitted or top-dose-only effect; inactive = no such curve, though single readings can be large or run the other way. Potencies of inconclusive entries are left out as doubtful fits.
% is scaled to controls: 0 for no effect and ±100 for the full control effect; potency is read from the fitted curve at half-maximal effect; tags tell the direction and shape of the fitted curve.
Also: nearly all actives have a fitted effect of over 55% in size.

Each compound was assayed against Glucagon-like peptide 1 receptor (Homo sapiens) (UniProt P43220) (assay: qHTS of GLP-1 Receptor Inverse Agonists (Inhibition Mode)). Settings: HEK293 GLP-1R CRE-luciferase, luminescence, 24 h, GLP-1R form is constitutively active; activity change, negative = inhibition: at 38.3 µM (top of the series) unless noted.
Chain of UniProt P43220 (P43220 whole entry, looked up): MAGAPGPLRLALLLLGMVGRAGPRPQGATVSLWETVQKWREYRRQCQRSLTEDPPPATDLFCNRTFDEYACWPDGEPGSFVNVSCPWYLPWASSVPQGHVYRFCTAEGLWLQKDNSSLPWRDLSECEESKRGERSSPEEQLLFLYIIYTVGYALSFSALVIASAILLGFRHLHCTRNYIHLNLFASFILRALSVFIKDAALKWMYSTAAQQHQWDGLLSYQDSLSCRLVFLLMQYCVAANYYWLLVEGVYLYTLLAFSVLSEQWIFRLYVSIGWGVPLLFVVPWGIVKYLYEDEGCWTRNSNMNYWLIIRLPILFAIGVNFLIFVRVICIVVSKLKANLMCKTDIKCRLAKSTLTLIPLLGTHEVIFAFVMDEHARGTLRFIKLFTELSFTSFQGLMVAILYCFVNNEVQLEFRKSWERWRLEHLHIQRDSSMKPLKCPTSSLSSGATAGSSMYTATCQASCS
How it was run: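 qHTS in 1536-well format: reporter HEK293 cells expressing constitutive GLP-1R activity in DMEM + 10% Nu serum, 24 hr with compounds at 37 deg C, luminescence read after 12 min with detection reagent.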
In the case of `Cn1c(-c2ccccc2)c(Sc2ccccc2)c2cc(-c3ccc4[nH]ccc4c3)ccc21`, the Potency is reported as inconclusive [inhibitor, partial curve, poor fit].
For `O=C(CNc1cc(S(=O)(=O)N2CCOCC2)ccc1NCC1CCCO1)Nc1ccc(C(F)(F)F)cc1` (stereo not drawn), the Potency was inconclusive [inhibitor, partial curve, poor fit].
In the case of `CCC(Sc1ncccc1C(=O)Oc1cccc([N+](=O)[O-])c1)C(=O)Nc1ccccc1OC` (stereo not drawn), the Potency is reported as inconclusive [inhibitor, partial curve, poor fit].
In the case of `O=C1c2cccc(OCC(=O)N3CCCc4ccccc43)c2CCN1Cc1ccc(F)cc1`, the Potency is reported as inconclusive [inhibitor, partial curve, poor fit].
With `Cc1cc(C)cc(NC(=O)CN2CCN(c3ccccn3)CC2)c1` the Potency was inconclusive [inhibitor, single point].
For `COc1ccccc1C(=O)COC(=O)c1cccc(S(=O)(=O)N2CCCC2)c1`, the Potency was inconclusive [inhibitor, single point].
For `CN(c1ccccc1)S(=O)(=O)c1ccc(Cl)c(C(=O)Nc2ccccc2N2CCOCC2)c1`, the Potency was inconclusive [inhibitor, single point].
For `Cc1ccc(-c2nnc(Nc3cccc(Cl)c3)c3ccccc23)cc1S(=O)(=O)N1CCOCC1`, the Potency was inconclusive [inhibitor, single point].
In the case of `COC(=O)c1ccc(C2SCC(=O)N2Cc2ccccc2)cc1` (stereo not drawn), the “activity change, negative = inhibition” value is reported as inactive: -0.792%.
With `c1ccc(-c2nc3ccccc3n2C(c2ccccc2)c2nc3ccccc3[nH]2)cc1` (stereo not drawn) the “activity change, negative = inhibition” value was inactive: -22.4%.
`Cc1ccccc1-c1cc(C(=O)Nc2sc(C)c(C)c2C(N)=O)c2ccccc2n1` was tested, and the Potency was inconclusive [inhibitor, partial curve, poor fit].
With `Cc1cc(C)c2cc(C(=O)N3CCC(C(=O)c4ccc(F)cc4)CC3)[nH]c2c1` the Potency was inconclusive [inhibitor, partial curve, poor fit].
For `O=C(c1cnn2c(C(F)F)cc(-c3ccccc3)nc12)N1CCN(Cc2ccc3c(c2)OCO3)CC1`, the Potency was inconclusive [inhibitor, single point].
For `O=C(Cn1cnc2c(oc3ccccc32)c1=O)Nc1ccccc1C(F)(F)F`, the “activity change, negative = inhibition” value was inactive: 8.48%.
For `Cc1ccc2[nH]c3nc(SCCN4CCOCC4)nnc3c2c1`, the “activity change, negative = inhibition” value was inactive: 0%.
For `O=C(C=Cc1ccc2c(c1)OCO2)c1ccccc1`, the “activity change, negative = inhibition” value was inactive: -26.8%.
For `Cc1ccc(C)c(N2C(=O)CC(Cc3ccc(Br)cc3)C2=O)c1` (stereo not drawn), the Potency was inconclusive [inhibitor, single point].
In the case of `NC(=S)N/N=C/C=C/c1ccccc1`, the Potency is reported as inconclusive [inhibitor, partial curve, poor fit].
`Cc1ccc(-c2ccc(/C=N/N=C3/NC(=O)C(CC(=O)O)S3)o2)c([N+](=O)[O-])c1` (stereo not drawn) was tested, and the “activity change, negative = inhibition” value was inactive: -5.96%.
`Cc1ccc(S(=O)(=O)N2CCN(c3ncnc4ccccc34)CC2)cc1` was tested, and the Potency was inconclusive [inhibitor, partial curve, poor fit].
In the case of `Cc1nc2cc(NC(=O)Nc3cccc(F)c3)ccc2n1C`, the Potency is reported as inconclusive [inhibitor, partial curve, poor fit].
`Cc1ccc(C(C)(C)C)cc1S(=O)(=O)N1CCC(C(=O)N2CCN(c3ccc(O)cc3)CC2)CC1` was tested, and the Potency was inconclusive [inhibitor, full curve, poor fit].
In the case of `COc1ccc(S(=O)(=O)N(C)CC(=O)NCCC2=CCCCC2)cc1`, the Potency is reported as inconclusive [inhibitor, single point].
In the case of `Cc1cccc(CN2CCC(C(=O)Nc3cccc(-c4cscn4)c3)CC2)n1`, the “activity change, negative = inhibition” value is reported as inactive: -26%.
`CCOc1ccc(NC(=O)CN2C(=O)NC3(CCCCCC3)C2=O)cc1` was tested, and the Potency was inconclusive [inhibitor, partial curve, poor fit].
For `Cc1cc(OCC(=O)Nc2ccc(CN3CCOCC3)cc2)ccc1Cl`, the Potency was inconclusive [inhibitor, partial curve].
`O=C(CCNS(=O)(=O)c1ccc2ccccc2c1)NCCOc1ccccc1` was tested, and the Potency was inconclusive [inhibitor, partial curve].
`O=C(NCCCc1ccccc1)C1CCN(c2nnc(-n3cccc3)s2)CC1` was tested, and the Potency was inconclusive [inhibitor, single point].
With `CC(=O)c1c(C(C)=O)c(C)n(-c2cccc([N+](=O)[O-])c2)c1C` the “activity change, negative = inhibition” value was inactive: 31.2%.
With `Cn1c(=O)c(=O)n(C)c2cc(S(=O)(=O)Nc3ccc4c(c3)OCCO4)ccc21` the Potency was inconclusive [inhibitor, partial curve, poor fit].
`COCCCNC(=S)NC1CC2CCCC(C1)N2Cc1ccco1` (stereo not drawn) was tested, and the “activity change, negative = inhibition” value was inactive: -3.83%.
In the case of `Cn1cc(CN2CCCC(C(=O)c3cc(F)ccc3F)C2)c2ccccc21` (stereo not drawn), the Potency is reported as inconclusive [inhibitor, partial curve, poor fit].
For `COc1ccc(CNC(=O)C(c2ccco2)N(C(=O)c2csnn2)c2cccc(C)c2C)cc1` (stereo not drawn), the Potency was inconclusive [inhibitor, partial curve, poor fit].
For `CC(c1ccncn1)N(C)Cc1nc(-c2ccc(C(F)(F)F)cc2)no1` (stereo not drawn), the Potency was inconclusive [inhibitor, partial curve, poor fit].
With `CC(=O)OCC1=C(C(=O)O)N2C(=O)C(NC(=O)c3ccc(COc4c(C)cccc4Cl)o3)C2SC1` (stereo not drawn) the “activity change, negative = inhibition” value was inactive: -4.48%.
`COc1cccc(-n2ccnc2SCC(=O)N2CCc3ccccc32)c1` was tested, and the Potency was inconclusive [inhibitor, single point].
For `Cc1ccc(CNC(=O)C(=O)NCC2CCCN2S(=O)(=O)c2cc(C)ccc2C)cc1` (stereo not drawn), the Potency was inconclusive [inhibitor, single point].
In the case of `Cc1cccc(-c2noc(CN(C(=O)C(c3ccccc3)c3ccccc3)C(C)C)n2)c1`, the Potency is reported as inconclusive [inhibitor, partial curve, poor fit].
`CCN(CC)CCNC(=O)c1ccc(NC(=O)c2ccc(S(=O)(=O)N3CCCC3)cc2)cc1` was tested, and the Potency was inconclusive [inhibitor, single point].
For `BrC(/C=N/N1CCN(Cc2ccccc2)CC1)=C/c1ccccc1`, the Potency was inconclusive [inhibitor, partial curve, poor fit].
In the case of `COc1ccc(OC)c2[nH]c(C(=O)N/N=C/c3ccccc3O)cc12`, the Potency is reported as inconclusive [inhibitor, partial curve, poor fit].
With `N#C/C(=C(/O)c1ccc(Br)s1)c1nc2ccccc2[nH]1` the Potency was inconclusive [inhibitor, partial curve, poor fit].
In the case of `CC12CCC(C(=O)Nc3ccccc3Cl)([C@H](Br)C1=O)C2(C)C` (stereo partly drawn), the Potency is reported as inconclusive [inhibitor, single point].
`C=CCc1cc(OC)ccc1OCCN(C)Cc1ccccc1` was tested, and the Potency was inconclusive [inhibitor, single point].
In the case of `Cc1cc(C(=O)COC(=O)c2ccc(O)cc2)c(C)n1-c1ccccc1F`, the Potency is reported as active: 10 µM.
`COc1ccc(C(=O)NCC(c2cccnc2)N2CCc3ccccc3C2)cc1OC` (stereo not drawn) was tested, and the “activity change, negative = inhibition” value was inactive: 15%.
For `COc1ccc(C(=O)Nc2ccc(O)c3ccccc23)cc1`, the Potency was inconclusive [inhibitor, single point].
For `Cc1ccc(-n2sc3cc(F)ccc3c2=O)c(C)c1`, the Potency was inconclusive [inhibitor, partial curve, poor fit].
With `C[C@]12C=CC(=O)C=C1CC[C@H]1[C@@H]3C[C@@H](O)[C@](O)(C(=O)CO)[C@@]3(C)C[C@H](O)[C@@]12F` the Potency was inconclusive [inhibitor, full curve, poor fit].
In the case of `CCOCCCn1c(SCC(=O)Nc2ccc(C(C)C)cc2)nc2c(sc3ccccc32)c1=O`, the “activity change, negative = inhibition” value is reported as inactive: 2%.
In the case of `Cc1cccc(-n2c(O)c(C=Nc3ccccc3O)c3ccccc3c2=O)n1`, the “activity change, negative = inhibition” value is reported as inactive: 39.6%.
`C[C@@H](NC(=O)c1nc[nH]c1C(=O)NCc1ccc(CNC(=O)OC(C)(C)C)cc1)c1ccccc1` was tested, and the Potency was inconclusive [inhibitor, single point].
`O=C(CSc1nc2c([nH]c3ccccc32)c(=O)n1-c1ccc(F)cc1)NCc1ccccc1` was tested, and the “activity change, negative = inhibition” value was inactive: 6.13%.
`CC(=O)NC(CC(=O)NNC(=O)c1cccs1)c1ccccc1` (stereo not drawn) was tested, and the “activity change, negative = inhibition” value was inactive: 14%.
In the case of `Cc1onc(-c2ccccc2)c1C(=O)OCc1nnc(-c2ccccc2)o1`, the Potency is reported as inconclusive [inhibitor, partial curve, poor fit].
In the case of `Cc1ccc(Cc2nc3ccccc3nc2SCC(=O)NCCC(C)C)cc1`, the “activity change, negative = inhibition” value is reported as inactive: 9.99%.
For `Cc1ccc(CNc2ccc(N3CCOCC3)c(Cl)c2)cc1`, the Potency was inconclusive [inhibitor, single point].
In the case of `O=C(COc1cccc2ccccc12)N/N=C/c1ccc(Sc2nc3ccccc3s2)o1`, the Potency is reported as inconclusive [inhibitor, partial curve, poor fit].
For `O=S(=O)(NCc1cccs1)c1ccc(Br)cc1`, the Potency was inconclusive [inhibitor, partial curve, poor fit].
For `Cc1ccc(Cc2c(C)nc3nc(SCC(=O)NC(C)c4ccccc4)nn3c2C)cc1` (stereo not drawn), the Potency was inconclusive [inhibitor, single point].
With `O=C1C=CC(=O)N1CCCCCCN1C(=O)C=CC1=O` the Potency was inconclusive [inhibitor, single point].
In the case of `COc1cccc(N2CCN(C(=O)CCc3nnc4ccc(N5CCOCC5)nn34)CC2)c1`, the “activity change, negative = inhibition” value is reported as inactive: 17.8%.
For `Cc1c(C(=O)c2no[n+]([O-])c2C(=O)c2cnn(C)c2C)cnn1C`, the Potency was inconclusive [inhibitor, single point].
